Source: the supplement of paper PMC12632987
Over roughly 4,500 sequences, “median log2 fold change of GCK-ALFA target abundance (FLAG IP / Myc IP barcode read proportion)” has its median near 0.078; the lowest 2% begin near -0.6. This is one part of the list.

B1: GBRAP_78_6638 (protein)
chain: SIEEKLEEALKLVDEAAKLALELPEELRNEILDELVDAASDLEEAIEKGGDLEEIKEAAEHLEKAIELLEKENDPRLEPLLKLAKEALKLVKEVEKEVKK
B2: GBRAP_160_4687 (protein)
chain: SEKVKKAEEFIEEEFEEVVEIHEEVTPEELAAAVRVAFGRIKLELEELGLLTDELGELIDEEEEEIVKYILENPNITKEELRKMLEEAKKKIVEKLKEIS
B3: GBRAP_39_5637 (protein)
chain: EEEEEAEDIYSYLEALGAKLLVERKISLDELLDETYAAALAAVADDPELQALLDELRELALKGDDMDKLAAAGAFARVAEGAPREEARRDLKLLIELFKK
B4: GBRAP_160_4217 (protein)
chain: MELVEKLVEIVREEFEEALELIEGESEEERRVILDVAVGNVILEAMEIPGVTDEMEEVVEEKSRELAEELLEARDKSEEERRKLIEERVEELREELEKLE
B5: GBRAP_14_3842 (protein)
chain: SEELRKLLEEVVDRAVAEVAALAPPEHADRVAALRDALLAAVDEGLKTGDLEEMEERLIAVARATVTELFADLPETERAALVAAAEDALIEGFEEVEKKL
B6: GBRAP_125_3108 (protein)
chain: SEEEILEALKRLAKALGFSEEEAEEAAELARKFSVKQTLYALFLAEGEEELADLVEKLTEEQAKRALLKLAKWLEENPNATKEEVLEQAKKILEEELAKQ
B7: GBRAP_106_2561 (protein)
chain: SKLEELKKFLEEKMEEAMATVEAVTEAIVKRFGVDREEAEAAVRAHALAYVASQLKEKAKELGINNPELIKKIEETMRANRYKSKEEIIKLAKEVLDEGL
B8: GBRAP_128_3205 (protein)
chain: ASPAAVAELRALADEVAETKTDEAIEAFAAAIAEALRAGELDLDSLEEVVTYLGSKLDEDTIVKAEDALRAALADVGPEALATALGALGEVLMEKEEEEE
B9: GBRAP_11_2725 (protein)
chain: KKETILKHAKKAEELAKEIEKLIKEGPTEEELKKLAKEAEKLAKEAKKDGLPQSVVDTLEIAAELLKKAIEDPENAEEYLRQAAAAFRVAAGQLLLLAEE
B10: GBRAP_128_3168 (protein)
chain: SSEEIVKKVEELVEEMLKADDEEFRKLAEEIVDIIGEADLETAEKIVEIIIKNLPKLSEEKLDILMDVIREKRPEFSPEKQELLAEVEVEAGERILELEE
B11: GBRAP_160_3995 (protein)
chain: SEKKKKLLEKIKEILEETYELMKGESPEERLAIARVAAGDILLELFESELVSDETEEKIDEVLDEFVATVEANPDMSDEELKELLEETLEKIEKIIEENS
B12: GBRAP_78_6630 (protein)
chain: EVEELIDKAIEKLGEAAKLTVVLPEEDRNELLGLIVDAESDLLEAEEEGGDLEKLEEAKKHLEEALALVEALNDERAKPIKEELEKALKLLEEAIKLLKK
B13: GBRAP_139_3721 (protein)
chain: SHEEEIIEEAKKIVKENKDNIELLAKKIAELISKVDDETALKIARAVAEEIKDWSWEKFEEFIEKVSEELKKLGLSEDDILAIEGELEAVFAKIELEKEK
B14: GBRAP_11_2912 (protein)
chain: KKELLEELAKKAEELVEKLKELLEEGVENEELLEEALKIAEEALKLAKKNLDESTVKLAEELVELLKKALEDPENAEQYVKEALAVARVLLGQILLEIEE
B15: GBRAP_48_5814 (protein)
chain: KKLDLEKLEKLVEEKVEEMYELYEEAKKEGLSEEEILRMIRAELGDLALELEEAGYEKAADYLLDPENREELAKKLLELFKEGKKEEAKKLLLEKLLEAE
B16: GBRAP_11_2624 (protein)
chain: KKEKLKEIAKLAEEAAELAKKLLEKGVDDEELLKELKEKIEELKKLVKKYADESDQKDVEIAEELFKKSLEDKENAEKYLKELLAALRVLAGNYLLEIEE
B17: GBRAP_128_3397 (protein)
chain: GQEEKVKEAKKLIDEIVNSSVEEAKELAKKFMELFGELDEEAREEVAEYFESKLPKLTAEKLDVVADVIREMRPKLDEEAANIAADMEVAALNQAEEKEE
B18: GBRAP_128_3158 (protein)
chain: SVEEVKEKTRELLEKIKESDDETARELAEELFALIGTLSKEEREAAVEVILERLPELSEEKLEILADVAREMRPKYDEYTANLIAEVEVEALNEAEELEE
B19: GBRAP_55_6432 (protein)
chain: SEDDEDRRLAAETLLELAVAFADDPEKLAAYVDRLMEVAKDAPVTATASPLPREEAERIYEKLKAELEKAAKEHGLEVKVELVEDPETGTASIVVTITPK
B20: GBRAP_11_2933 (protein)
chain: SKELIKKAAEAAKKAKKIVEEAIKKGYLTEEEKKEVKELLEKAKELLKKLNTEEAKALQKDVEVALEILEEVEKDPEFYLKLLKATLESIELELEELLEE
B21: GBRAP_35_5524 (protein)
chain: NSDETAAEMLVATIDDLTLAVPDLPLDTLVAITNQLARSAEELVEDLKDKPESLKKLLESMKKLLEAIKRHHADSPEAKAAAARVEKVIKKIEEAIKKAE
B22: GBRAP_128_3197 (protein)
chain: VSAAAVAALRALAAAVIATKSDAAIAAFAAAVAAALAAGEIDIDTLEEIVAALGEGLDADTLAKVADALDAALADVGAEARATALGTLGEKIWEKEEEAE
B23: GBRAP_160_4236 (protein)
chain: SEKLKKLEEEINEEFELLLEVLLESPKSQWEAYARAFAGDIVQIVIENEEVSDEAEEKVAEIADEMVEDLVAAKDASPEELKKLLEEYAKKIVETVKKEL
B24: GBRAP_52_6271 (protein)
chain: MEEEAEKLAKEALEVVLNKSKEEIEKFAKELVENNSQELIALTLEIVVKLSEELDLESIEKVLDFFLILEDEAEEAGKDTLPAEDAAARLAGLALEKRAE
B25: GBRAP_128_3371 (protein)
chain: IDEEKLARVRELAEAMAKADVETARELARELVELLATLSPEERKAAVEIIKKELPKLTAEKLDVLADVIRELRPTVDPETAALLNELEVEALNEALEKEE
B26: GBRAP_48_5836 (protein)
chain: EEERLEKAIEESLKVIKETAELLKEAKEEGLSEAAFEAILIDAAEELKEIWDKYLGLGEAWDALPLEERLAIVRELVETYEKEGEEAARKKIREVIEELK
B27: GBRAP_11_2778 (protein)
chain: KKEKLEKAIELAKKLAEAIKKLLEEGVDNEELRKEAEKLLEELEKLIKENADKDLQKLAEIAKEEWKEALENPETAVEHLKNMLAAVETLEGQLLLELEE
B28: GBRAP_52_6021 (protein)
chain: MEARLQAAVRELLALVRAGDEDAARAAARALVASLNEEELKLLVDEVAALAAEAAPEDADAVWRLAEIIAEALEEAGVDEALADDLLARTAAALHEALQR
B29: GBRAP_80_6773 (protein)
chain: ALKEAEKAIEEVEKLDPELAKELRKILEKLLKKGASEETLKAFAELAAAIAEALKLGLKETAEEAVKEAKEAAELEDEEEITAEFRGIAGEVLMEVEEAE

The binders below were run against GABARAP, O95166 (assay: median log2 fold change of GCK-ALFA target abundance (FLAG IP / Myc IP barcode read proportion) (log2 ratio); each designed protein is fused to an ALFA-tag nanobody in HEK293 cells to bring the named protein to FLAG-tagged glucokinase (GCK); Myc marks an untargeted standard; higher = target protein stabilised (more abundant)). Settings: target protein: 3xFLAG-MCP-GCK-ALFA reporter; HEK293 landing pad (RPLP).
GABARAP, O95166, sequence (O95166 whole entry, the tested form may be a part): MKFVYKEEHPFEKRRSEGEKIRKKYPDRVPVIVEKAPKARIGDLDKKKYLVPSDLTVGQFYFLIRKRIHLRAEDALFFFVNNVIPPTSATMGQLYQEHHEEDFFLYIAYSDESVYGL
Procedure: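 LABEL-seq trans screen in HEK293 landing-pad cells. Each de novo designed 100-aa effector handle, binding the indicated effector (E3 ligase, DUB or autophagy protein), is fused to a constant NbALFA target handle and induced with 2 ug/mL doxycycline. A FLAG-MCP-GCK-ALFA target and a Myc-MCP standard reporter were transfected, and after 48 h circRNA barcodes were recovered by anti-FLAG and anti-Myc IP and sequenced. The value is the median across barcodes (at least 3 per design) of log2(FLAG/Myc read-proportion ratio), with the two transfection replicates pooled. Negative values mean degradation and positive values mean stabilisation of the target.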

Binder	median log2 fold change
B1	0.146
B2	0.26
B3	0.205
B4	-0.6
B5	0.179
B6	-0.437
B7	-0.179
B8	0.248
B9	0.289
B10	0.0404
B11	-0.00842
B12	0.179
B13	-0.231
B14	0.422
B15	0.0525
B16	0.269
B17	0.202
B18	-0.107
B19	0.231
B20	0.235
B21	0.0758
B22	0.0303
B23	-0.0584
B24	0.132
B25	0.0844
B26	0.414
B27	0.252
B28	0.045
B29	0.227
